Test results taken from article PMC4336329 (PLoS ONE, 2015).
In all, about 310,000 compounds went through this assay and about 2,200 (0.71%) showed an effect of 50% or more. Effects have a minus sign here. The list shows a part of the results.

The molecules below were run against human ether-à-go-go-related gene (hERG) potassium channel (human, UniProt Q12809) (assay: primary screen, population patch clamp on CHO cells stably expressing hERG).
Chain of human ether-à-go-go-related gene (hERG) potassium channel (Q12809 whole entry, looked up): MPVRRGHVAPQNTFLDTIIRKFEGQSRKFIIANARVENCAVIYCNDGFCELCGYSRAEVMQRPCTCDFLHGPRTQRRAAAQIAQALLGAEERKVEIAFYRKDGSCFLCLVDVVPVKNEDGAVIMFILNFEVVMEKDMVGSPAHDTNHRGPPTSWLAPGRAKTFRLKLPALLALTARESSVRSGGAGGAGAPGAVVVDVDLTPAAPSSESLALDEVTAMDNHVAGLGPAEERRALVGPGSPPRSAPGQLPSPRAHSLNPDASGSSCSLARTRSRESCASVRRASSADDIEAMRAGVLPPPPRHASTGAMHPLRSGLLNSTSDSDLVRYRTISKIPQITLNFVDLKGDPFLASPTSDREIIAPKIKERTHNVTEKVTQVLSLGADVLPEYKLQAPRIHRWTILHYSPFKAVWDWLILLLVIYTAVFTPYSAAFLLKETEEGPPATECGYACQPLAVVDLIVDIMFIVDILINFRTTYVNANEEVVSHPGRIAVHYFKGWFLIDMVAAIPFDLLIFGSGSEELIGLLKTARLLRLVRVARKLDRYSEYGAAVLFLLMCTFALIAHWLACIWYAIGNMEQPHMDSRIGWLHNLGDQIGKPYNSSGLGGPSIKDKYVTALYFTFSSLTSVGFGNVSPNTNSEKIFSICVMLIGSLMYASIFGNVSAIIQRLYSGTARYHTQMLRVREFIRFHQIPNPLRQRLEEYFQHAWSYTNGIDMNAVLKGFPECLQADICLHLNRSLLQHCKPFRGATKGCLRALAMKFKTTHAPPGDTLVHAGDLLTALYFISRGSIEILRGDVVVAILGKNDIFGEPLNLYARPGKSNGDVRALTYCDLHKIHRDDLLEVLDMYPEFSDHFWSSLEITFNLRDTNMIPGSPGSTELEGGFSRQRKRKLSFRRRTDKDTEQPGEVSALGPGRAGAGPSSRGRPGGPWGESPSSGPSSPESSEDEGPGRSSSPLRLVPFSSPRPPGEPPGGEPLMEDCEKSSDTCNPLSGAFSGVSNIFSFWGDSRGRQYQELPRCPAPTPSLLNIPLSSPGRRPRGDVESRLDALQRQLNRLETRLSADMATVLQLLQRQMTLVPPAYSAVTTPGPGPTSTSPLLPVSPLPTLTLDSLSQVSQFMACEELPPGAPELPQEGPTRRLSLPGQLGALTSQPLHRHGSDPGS

SMILES | hERG current change (%, negative = inhibition) at 1uM [%]
Cc1ccc(/C=N/NC(=O)c2ccc(-n3cnnn3)cc2)cc1 | 11.8
O=C(O)CNC(=O)c1ccc(Oc2c(F)c(F)c(Oc3ccc(C(=O)NCC(=O)O)cc3)c(F)c2F)cc1 | 7.26
CN(Cc1ccccc1)C(=O)COc1ccc(-c2nnco2)cc1 | 16.6
COc1ccc(C(=O)Nc2nnc(SCC(=O)NCC3CCCO3)s2)cc1OC (centres unmarked) | 15.1
CC(C)(C)c1ccc(OCCNCc2ccccc2)cc1.O=C(O)C(=O)O | 10.9
O=[N+]([O-])c1ccc(O)c2cccnc12 | 11.5
CCCN(CC(=O)Nc1ccccc1OC)C(=O)c1ccc(=O)[nH]c1 | 9.6
CC(=O)N1CCN(C(=O)COC(=O)CNC(=O)c2ccccc2C)CC1 | 11
COC(=O)Cc1[nH]nc2c1C(c1cccc(OC)c1OC)C(C#N)=C(N)O2 (centres unmarked) | -5.2
O=C(c1ccc2c(c1)N(Cc1ccc(F)cc1)C(=O)c1ccccc1S2(=O)=O)N1CCN(c2ccccn2)CC1 | 9.97
CCCOC1CCCN(C(=O)c2ccc(OC)c(OC3CCN(C(C)C)CC3)c2)C1 (centres unmarked) | 8.18
C/C(=N\NS(=O)(=O)c1ccc(C)cc1)c1cc2ccccc2oc1=O | 5.59
O=Cc1cc2ccccc2nc1SCc1ccc(Cl)c(Cl)c1 | 2.75
Cc1ccc(S(=O)(=O)N2CCN(C(=O)CSc3nc(N)cc(=O)[nH]3)CC2)c(C)c1 | 14.3
O=C(CSc1ncn[nH]1)Nc1nc(-c2cccc([N+](=O)[O-])c2)cs1 | 3.46
O=C1c2cccnc2C(O)N1Cc1cccs1 (centres unmarked) | -3.71
COc1ccc2nc(C)cc(SCC(=O)NNC(=O)COc3ccc(C)cc3)c2c1 | 18.1
N#CC1=C(N)OC2=C(C(=O)CCC2)C1Cc1ccccc1 (centres unmarked) | 5.91
Cc1cc(C)cc(N(C(=O)Cn2nnc3ccccc32)C(C(=O)NCc2ccco2)c2ccncc2)c1 (centres unmarked) | -6.28
COc1ccc(C(=O)COC(=O)CCC(=O)c2cccs2)cc1 | 3.5
O=C(c1cc(-c2ccncc2)nc2c(Cl)cccc12)N1CCN(c2ccccc2F)CC1 | -23.3
C/C(=N\N1CCN(Cc2ccc(Cl)cc2)CC1)c1ccc([N+](=O)[O-])cc1 | -37.2

SMILES | hERG current change (%, negative = inhibition) at 1uM [%]
CC(=O)Nc1ccc(S(=O)(=O)N2CCC3(CC2)CC(=O)c2ccccc2O3)cc1 | -13.2
COc1ccc(OCCN(C)C(=O)c2cccc(S(=O)(=O)N(C)c3ccccc3)c2)cc1 | -6.1
O=C(CN(C(=O)c1csnn1)c1ccccc1F)NCc1ccccc1 | 0.213
CCCN1C(=O)SC(CC(=O)Nc2ccc(Br)cc2)C1=O (centres unmarked) | 9.32
Cc1ccccc1NC(=O)c1cc([N+](=O)[O-])ccc1NCCN1C(=O)CCC1=O | 11.7
CCOc1ccccc1NC(=S)NC(=O)C1CC1 | 12.2
O=C(Nc1ccc(F)cc1)N(Cc1cccs1)Cc1cc2cc3c(cc2[nH]c1=O)OCO3 | 16.6
Cc1cccc(N(C(=O)c2snc(C(N)=O)c2N)C(C(=O)NCc2ccccc2)c2ccncc2)c1 (centres unmarked) | 11.1
COc1ccccc1CNC(=O)C(CCSC)NC(=O)C1CCC(C)CC1 (centres unmarked) | 15.6
COc1ccccc1OCC(=O)NNC(=O)c1cccs1 | 7.84
NC(=O)C1CCCN(C(=O)c2ccc(NC(=O)c3cccs3)cc2)C1 (centres unmarked) | 0.985
COc1ccc(-c2c(C)nn3c(N4CCN(Cc5ccccc5)CC4)cc(C)nc23)cc1OC | 10.6
CCCCn1c(N)c(N(CCOC)C(=O)C2CCN(S(=O)(=O)c3ccccc3)CC2)c(=O)[nH]c1=O | -6.82
CCSc1nc2ccccc2c(=O)n1OCC(=O)OC | 11
O=C(c1ccc(N2CCOCC2)cc1[N+](=O)[O-])N1CCOCC1 | 9.97
CCn1nnc(NC(=O)c2cc3ccccc3o2)n1 | 8.64
COc1ccccc1/C=C/C(=O)NC(=S)N1CCOCC1 | 15.6
Cn1c(=O)n(C)c2cc(NS(=O)(=O)c3ccc(Br)s3)ccc21 | 14.5
Cc1[nH]c2ccccc2c1C(c1ccncc1)N1CCN(c2ccc(F)cc2)CC1 (centres unmarked) | 12.3
OCC[C@@H]1C[C@@H](O)[C@H](O)[C@@]2(Cc3ccccc3CCO2)O1 | 16.8
CCCCC(=O)Nc1ccc(N2CCCC2)cc1 | 6.04
C/C(Cc1ccccc1)=N\NC(=O)C1CCCCC1 | 6.6

SMILES | hERG current change (%, negative = inhibition) at 1uM [%]
CCN1CCN(C(=S)NCC(C)C)CC1.O=C(O)C(=O)O | 14.5
COc1ccc(/C=C/C(=O)N(C(C)C)C(C)C)cc1Br | 2.94
CC1(c2ccccc2)CC(C)(C)N2C(=O)Cc3cccc1c32 (centres unmarked) | 8.13
CC1C(=O)Nc2ccccc2N1C(=O)c1c(F)cccc1F (centres unmarked) | 5.05
CNS(=O)(=O)c1cccc(C(=O)OCC(=O)NC(C)CCc2ccccc2)c1 (centres unmarked) | 12.3
CCCOC1CCCN(C(=O)c2cc(Cl)c(Cl)cc2C(=O)O)C1 (centres unmarked) | 14.1
Cc1ccc(N(CC(=O)NC(C)c2ccccc2)S(=O)(=O)c2c(C)n[nH]c2C)cc1 (centres unmarked) | -4.71
COc1ccc(/C(O)=C2\C(=O)C(=O)N(c3cc(C)on3)C2c2ccc(OC)c(OC)c2)cc1OC (centres unmarked) | 9.33
CCOC(=O)N1CC(=O)Nc2ccc(Br)cc2C1c1ccccc1 (centres unmarked) | 7.76
CCCC(=O)NC(Oc1ccc(C(C)=O)cc1)C(Cl)(Cl)Cl (centres unmarked) | 1.31
O=C(NCCC1CCCCN1S(=O)(=O)c1ccccc1)C(=O)NCc1ccco1 (centres unmarked) | 10.5
CCn1cc(C(=O)N(C)c2cc(C)ccc2OC)c2cc(OC)c(OC)cc2c1=O | 10.8
O=S(=O)(Nc1ccc(Cl)cc1)c1cccc2nsnc12 | 9.14
COc1ccc(NC(=O)CCN2CCCCC2)cc1 | 10.6
Cc1cc(C)n(-c2ccc(C(=O)OCC(=O)Nc3ccccc3[N+](=O)[O-])cc2)n1 | 11.2
CC1CCCN(C(=O)c2ccccc2OC2CCN(S(C)(=O)=O)CC2)C1 (centres unmarked) | 10.3
CC(=O)c1ccc(NC(=O)CSc2nc(N3CCOCC3)nc(N3CCOCC3)n2)cc1 | 2.69
CN1CCN(CCc2nc3cc(NC(=O)COc4ccc(Cl)cc4)ccc3n2C)CC1 | -7.52
CCN1/C(=C2\C(=O)N(C)C(=S)N2c2ccccc2)C=Cc2ccccc21 | 3.7
O=C(Cc1n[nH]c(=O)c2ccccc12)Nc1cc(Cl)ccc1-n1cncn1 | -9.66
C/C(=C\C(=O)N1CCc2ccccc21)C(=O)O | 13.3
Nc1cccc(CCc2ccncc2)c1 | 13.7

SMILES | hERG current change (%, negative = inhibition) at 1uM [%]
COc1ccc(C(=O)Nc2ccc(S(=O)(=O)NC(C)=O)cc2)cc1[N+](=O)[O-] | 9.41
CCCOc1cccc(C(=O)N/N=C/c2coc3ccccc3c2=O)c1 | 14.5
CC1(C)C2C/C(=N\O)C(C)(/[N+]([O-])=C/c3cccc([N+](=O)[O-])c3)CC21 (centres unmarked) | 7.22
Cc1ccc(-c2noc(CC(c3ccccc3)c3ccccc3)n2)cc1 | 3.71
O=C(NCCC(c1ccccc1)c1ccccc1)c1cnccn1 | 5.87
CC(=O)NC(Cc1c[nH]c2ccccc12)C(=O)Nc1ccc2c(c1)OCO2 (centres unmarked) | 10.9
COc1ccc(-c2cc(C(=O)N3CCC4(CC3)OCCO4)c3ccccc3n2)cc1 | 14.6
C[C@@H]1O[C@@H](OC[C@H]2O[C@@H](Oc3c(-c4ccc(O)c(O)c4)oc4cc(O)cc(O)c4c3=O)[C@H](O)[C@@H](O)[C@@H]2O)[C@H](O)[C@H](O)[C@H]1O | 22.1
CN(C)NC(=O)C(NC(=O)c1ccc(N)cc1)C12CC3CC(CC(C3)C1)C2 (centres unmarked) | 10.8
O=Cc1cccn1-c1sc2c(c1C(=O)O)CCCC2 | 6.66
Cc1ccc(N2CC(C(=O)NCc3n[nH]c(=O)c4ccccc34)CC2=O)cc1C (centres unmarked) | 5.72
COC(=O)c1cc(OC)c(OCc2cc(C(=O)OC)oc2C)c(OC)c1 | 9.68
COc1ccc(OCCSc2nc(-c3ccccc3)cc(=O)[nH]2)cc1 | 15.4
CC(=O)Nc1ccc(NCC(=O)c2ccccc2)cc1 | 17.7
C=CCn1c(SCC#N)nnc1-c1ccc2ncccc2c1 | 8.7
Cc1c(CC(=O)N[C@@H](C)C(=O)O)c(=O)oc2cc3oc4c(c3cc12)CCCC4 | 18.7
CCOc1ccccc1-n1c(C)cc(C=O)c1C | 1.15
Cc1nnc(SCc2ccccc2F)n1NCc1cccs1 | 5.71
O=C(O/N=C1\CCS(=O)(=O)c2sccc21)c1ccccc1 | 4.26
Cc1ccc(C)c(-c2nnc(NC(=O)COc3ccccc3)o2)c1 | 21.9
